The other results are listed elsewhere or left out.
What follows are sequences tested on PF3D7_0420300 AP2 domain 1 (GST-tagged) (assay: gcPBM binding intensity (ln(normalized median fluorescence intensity)); higher = stronger DNA binding).
Outline: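 GST-tagged P. falciparum DNA-binding domains produced in E. coli were incubated for 1 h on an Agilent 4 × 180k array of primer-extended double-stranded 36-bp intergenic genomic probes with negative controls. Binding intensity is the highest Masliner-normalised natural-log median intensity across replicate spots of either probe orientation, with bound protein detected by Alexa488 anti-GST antibody at 488 nm.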

| Sequence | gcPBM binding intensity (ln) |
| --- | --- |
| TAAAAAAAAACAGAAACACACATTATTCATATATAT [CACACA_site2049] | 9.77 |
| AAAATATTTATGTATGCATGTTGTAATATTTCTTTA [TGCATGCA_site296] | 9.28 |
| ATTTCCCCTTTTTATTGTACATTTTTATTTGTTACT [XGTACX_site4845] | 9.94 |
| TATGCTATATATTTAGTGCATATATATAACTTTTAT [GTGCAC_site9902] | 9.16 |
| AATATATATTTATAAACACACACCAAAATTTGTGCT [CACACA_site3091] | 9.46 |
| ACATTTTGTGTTTTAGCACACAATTTTTCAGAATAT [CACACA_site2961] | 9.36 |
| TATTAGCATGTTATTACACACAATATAAGATATATA [CACACA_site6775] | 9.32 |
| ATATTATAATATTTATGTACATATATATAATATATA [XGTACX_site1633] | 9.12 |
| TTTTCTACATCTTGTTGTACGAAAAATAAAAAAAAT [XGTACX_site4620] | 8.97 |
| AGTACGTAAATTATAATACACACTATAGGATATTCT [CACACA_site2559] | 9.51 |
| ATGTAATGTTATGTTATGTTTTTTTTTTTTTTGTGT [CACACA_negctrl_site1264] | 9.58 |
| AAAATTATATATTTTAGTACATAAAATATTGACATA [XGTACX_site2581] | 9.06 |
| TTTTAAACAGGACACACACACATATATATATATATA [CACACA_site4664] | 9.66 |
| GTTATTGTAAAAAGATTACACACGTTCTATATACTT [CACACA_site2473] | 9.54 |
| GGAATATGTATATTTTGTACGTATACATTTTTTGGG [XGTACX_site7681] | 9.4 |
| GATATATTTTATATATGTACATACAGTGGTAAATAT [XGTACX_site1324] | 9.31 |
| TTTATACAAAAAAACAAAATCAAACAAAAAAAAAAA [CACACA_negctrl_site252] | 9.19 |
| CAAAAAAGGTCCCGGAGTACATATATAATTTTTTTT [XGTACX_site458] | 9.23 |
| GAGATGACATTACACAGTACCCAGGAAATCTACGGA [XGTACX_site4931] | 9.32 |

| Sequence | gcPBM binding intensity (ln) |
| --- | --- |
| TATATATTGTTATATACACACATGTATATAAAAAAT [CACACA_site3221] | 9.4 |
| ATTGTCCTAAATACTACAAAGTAGATCTTTAATATT [CACACA_negctrl_site1795] | 9.15 |
| TAATTCCATAAGTAAACACACAAATGCCAAAATTTT [CACACA_site3205] | 9.42 |
| GTGCGTGCGTGTACTTAACACACATAATATGTATTT [CACACA_site8336] | 9.51 |
| TCCATATGCAAACTGGTGCACAAGTAGCTTTTATAT | 9.19 |
| TTAAGCCGCAATATGGGTACATAGGAAGAAGGGGAA [XGTACX_site8397] | 9.25 |
| ATATATAAAAATATTTGTACATATAGTTATATTTAT [XGTACX_site6114] | 9.26 |
| TTCTTTGCTTCTGTTTCACACATTTTTAAAATAAGC [CACACA_site4741] | 9.52 |
| TTTCTTTTTCTAGTTATTTTTACTTATCCCTAATTT [TGCATGCA_negctrl_site460] | 9.2 |
| TTATAATTAAGATATAATCAATAATAACAAATGAAC [CACACA_negctrl_site1690] | 9.37 |
| TTAAAGGGAATGTATACACACGTTTCTCTATGTTAT [CACACA_site4793] | 9.57 |
| TTGTATTTACACGATCAACCAAATGGTATATAAATA [GTGCAC_negctrl_site167] | 9.1 |
| ATATGTAGTTTTTACCTAATAAAAAAAAAAAAAAAA [CACACA_negctrl_site672] | 8.58 |
| AAATCATTCCTTTATTCACACAATATCTGTATTTAT [CACACA_site4407] | 9.51 |
| TAAACATATAAAAAGGGTACACATTAAACATAGTAT [XGTACX_site7096] | 9.44 |
| AAAACAAATTAAAATCGTACAATTATAATGTTAATG [XGTACX_site180] | 9.2 |
| TATAAAATAAAAATTATATATTTTAAATGGATACAA [TGCATGCA_negctrl_site284] | 8.99 |
| ATAGCTAAGATAGCTTGTACATATATTTACATATAT [XGTACX_site3694] | 9.2 |
| ATGCACATTTATAAAAGTACATGTATGTAATATGTT [XGTACX_site830] | 9.19 |

| Sequence | gcPBM binding intensity (ln) |
| --- | --- |
| ATTTAAATGAAAAAATGTACAAAAAGATTTAAACTC [XGTACX_site1489] | 9.31 |
| AATGTCCTTATTTGCACACACACATATAAGAAATTT [CACACA_site3186] | 10 |
| ATTTGAGAGTTAACAAAATATTTGGCCATCTTTTAT [XGTACX_negctrl_site447] | 9.11 |
| TATAATAAATCATATGCATGTTGAAAAAAAAAAAAA [TGCATGCA_site923] | 9.12 |
| AACTCATAGCGGTGTGCACACAAAAAATTAAAAAAA [CACACA_site3033] | 9.73 |
| TCATAAATGAAACACACACACACATCTGGATACCCC [CACACA_site3332] | 10.1 |
| ATTATATATATAAAGTGTACAAAAAAAAAAAAAAAA [XGTACX_site3134] | 9.09 |
| AATCAATATAAATAAAATTTTTAATTTTAACCCTAA [GTGCAC_negctrl_site266] | 9.03 |
| TAATAATATATTTGTAGTACACAATTTTTTATAACT [XGTACX_site3951] | 9.18 |
| TACTTATATACACATGTATATTATATATATAATATA [XGTACX_negctrl_site335] | 9.2 |
| TGTTATTAAAATATAGTGCATAATTAACCATTATAA [GTGCAC_site9594] | 9.1 |
| CACACGCACGGACACACACACATATAAAATCTATAT [CACACA_site6428] | 9.91 |
| TACTATAACAGACATACACACAAAAAAAAAAAAAAA [CACACA_site538] | 9.52 |
| ATATTTAACAGGTTAAAAATATAAACAAATAAATAA [CACACA_negctrl_site907] | 9.22 |
| ATTTTTTTTTTTTTTTTTTTTTTTTTTTAATCTGGA [CACACA_negctrl_site1347] | 8.86 |
| GAGAGGATAGTTCACAGTACTCAGTAACTCTACGGA [XGTACX_site4875] | 9.22 |
| ATATTTTGTTATGTAGATGTTGGTAGGAATTTTGGT [CACACA_negctrl_site1104] | 9.45 |
| AATAAATAAATAAATAAAACAAAGGGATTACATACA [TGCATGCA_negctrl_site513] | 9.43 |
